Positions count from the first letter of the chain named.
Tests used:
[1] = target: T1, グリコシル化ヒトIL−17A (glycosylated human IL-17A, made in-house in HEK EBNA cells) (human, UniProt Q16552 24-155, glycosylated (sites not given); biotinylated with NHS-PEO4-biotin in the lysate ELISA); experiment: cell-based or functional assay
T1 sequence: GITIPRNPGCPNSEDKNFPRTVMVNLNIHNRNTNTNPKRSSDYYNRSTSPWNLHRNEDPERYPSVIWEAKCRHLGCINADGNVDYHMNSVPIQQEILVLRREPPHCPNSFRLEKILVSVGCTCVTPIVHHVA

[2] = target: T2, 組み換えヒトIL−17A (recombinant human IL-17A) (human, UniProt Q16552 20-155, limits assumed); experiment: ELISA; recombinant human IL-17A (1 ug/mL) coated, goat anti-human-HRP detection
T2 construct: also called 可溶性IL−17A; ビオチニル化IL−17A (R&D 317-ILB)
T2 sequence: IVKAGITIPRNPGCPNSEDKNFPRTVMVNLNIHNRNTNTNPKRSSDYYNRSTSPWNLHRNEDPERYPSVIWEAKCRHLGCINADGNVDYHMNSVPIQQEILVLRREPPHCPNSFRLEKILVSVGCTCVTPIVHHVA

B1: 11L11-A09 (designed binder, not shown: small tags and cut ends)
chain: GVTLFVALYDYSRKSNLDLSFHKGEKFQILSTHEYEDWWEARSLTTGETGYIPSNYVAPVDSIQ
B1 was tested, and the “IC50; normal human dermal fibroblasts stimulated with IL-17A/TNFα: IL-6 in supernatant (ELISA)” value [1] was 66 nM.

B2: COVA804 (bispecific antibody, human IgG1, kappa)
heavy: QVQLQESGPGLVRPSQTLSLTCTVSGYSITSDHAWSWVRQPPGRGLEWIGYISYSGITTYNPSLKSRVTMLRDTSKNQFSLRLSSVTAADTAVYYCARSLARTTAMDYWGQGSLVTVSS[human IgG1 constant region not given here]
light: DIQMTQSPSSLSASVGDRVTITCRASQDISSYLNWYQQKPGKAPKLLIYYTSRLHSGVPSRFSGSGSGTDFTFTISSLQPEDIATYYCQQGNTLPYTFGQGTKVEIKRTVAAPSVFIFPPSDEQLKSGTASVVCLLNNFYPREAKVQWKVDNALQSGNSQESVTEQDSKDSTYSLSSTLTLSKADYEKHKVYACEVTHQGLSSPVTKSFNRGECGGGGSGGGGSGGGGSGVTLFVALYDYSARGQLDLSFHKGEKFQILSTHEYEDWWEARSLTTGETGYIPSNYVAPVDSIQ
notes: also called FynomAb
For B2, the EC50 [2] was 1.02 nM.

B3: COVA806 (bispecific antibody, human IgG1, kappa)
heavy: B2 heavy
light: B2 light with S241E, A242S, R243V, G244S, Q245W, L246S
notes: also called FynomAb
Work on B3 yielded an EC50 [2] of 0.98 nM.

— patent publication JP2017057201A (dated 2017)
